In article PMC12136788:
Some of the results follow.

B1: chr16:94664741:94664742:+_ENSMUSG00000040785_ENSMUST00000117648|mus_hu|mus_mus_mus_hu_False|38_108 (ssRNA)
RNA: GGGAGUUCUACAGUCCGACGAUCUGGCAUGGAUCUUGGUAGCUGAUAUUCAGGAGAAAGGCUGGCCAAGGGUGUAUAUAUGCUGGUGUACUGGGGCAGGCUAGGUAACACGUUUAUGUAUGCUGGCGGUGUCUGGGUGAUAUCCAACAGAGGAUUGAGCAUCA
B2: chr1:130485734:130485735:-_ENSMUSG00000045382_ENSMUST00000052172|mus_mus|mus_mus_mus_hu_False|58_58 (ssRNA)
RNA: GGGAGUUCUACAGUCCGACGAUCGAUGAAGGAGUCGAUGCUGAUCCCAAUGUAGUAAGGCAGCCAACAGGCGAAGAAAGCUAGGAUGAGGAUGACUGUGGUCUUGAGGGCCUUGCGCUUCUGGUGGCCCUUGGAGUGUGACAGCAACAGAGGAUUGAGCAUCA
B3: chr13:77595817:77595818:-_ENSG00000005812_ENST00000355619|hu_hu|FALSE|FALSE (ssRNA)
RNA: GGGAGUUCUACAGUCCGACGAUCACAUCUCCACAAGUCAGGCAUGUGAAAUACCUGGUUCCAGUUGCGGCAAACUUGUGAAGCAUGAGCCCGGUCAAGAAGAGGCAAAUAUUUAAAUACUUGGAGAAUAAUGUCCUGAAGGAGCAACAGAGGAUUGAGCAUCA
B4: chr10:60562040:60562041:-_ENSMUSG00000020097_ENSMUST00000092498|mus_hu|FALSE|FALSE (ssRNA)
RNA: GGGAGUUCUACAGUCCGACGAUCUAGUCACAGUUGUUGGGUCAGUAGUACAGUGCUCAAGAACAAUUCAGACUAACAUGCCAAGGAGCCUGAGGAAAAGUCUGGUAGUCAUGGCUCUCCCAGCCAGCAUUCCCAGUGGGGGAACAACAGAGGAUUGAGCAUCA
B5: chr12:25358290:25358291:-_ENSG00000133703_ENST00000311936|hu_mus|FALSE|FALSE (ssRNA)
RNA: GGGAGUUCUACAGUCCGACGAUCGUACGGUUCAUGACAAAAAUAUUACAAAUUUCAGAUCACUUCACAGCACGUACUCCUAUAAACAUUUAAAAGUUAAUUUUAAUUAAGAGUGGUCACUUUUAAAUUUAAUGUUUGAUAUGACAACAGAGGAUUGAGCAUCA
B6: chr10:70028019:70028020:-_ENSMUSG00000037747_ENSMUST00000162251|mus_mus|motif|central (ssRNA)
RNA: GGGAGUUCUACAGUCCGACGAUCAGCCUUCUCCAGCAGCUGUGUUAGAUGAACUUUGGAGUAAUCUGCUGUACAGAAUUCGGUAAUCUCACUCCAUUCAGACACGACGUAAUCACCAUCAACCUGUUUUGAGGCAGUCUGUACCAACAGAGGAUUGAGCAUCA
B7: chr2:183792894:183792895:-_ENSG00000061676_ENST00000360982|hu_hu|FALSE|FALSE (ssRNA)
RNA: GGGAGUUCUACAGUCCGACGAUCUGCAAGCGCCAGAAAUUCUUUAAGACGGUCUUCAAUGCUUCCUUUGUGAAUUGUAAACAAAGCUGCAGCAAUCUGGUUGAUGGCUUUGGCCAAGCAAUGUAUGUUGUUGCAAUGCCCUUCCAACAGAGGAUUGAGCAUCA
B8: chr2:179979976:179979977:-_ENSG00000187231_ENST00000335289|hu_hu|motif|central (ssRNA)
RNA: GGGAGUUCUACAGUCCGACGAUCCCUGUAGCAACUGCCUGCCAUAGUCAUAAGUGCUCUGUGCAACAUCAACAAAUUUUCGGUGCUUUUCCAGCAAAACUUUCGUUUCUUGAGCAUCAUCGCCCAAUCUGAUGUGAGUCUUAACAACAGAGGAUUGAGCAUCA
B9: chr3:32335226:32335227:+_ENSMUSG00000027665_ENSMUST00000108243|mus_hu|FALSE|FALSE (ssRNA)
RNA: GGGAGUUCUACAGUCCGACGAUCUGCUUCUUUAAAUAGUUCAUGCUUUAUGGUUAUUAAUGUAGCCUCACGGAGGCAUUCUAAAGUCACUAUCAUUCCAUUUGGUAGUAAACAUUCUACUAGGAUUCUUGGGGGCAUCAAGUGCAACAGAGGAUUGAGCAUCA
B10: chr4:17845017:17845018:+_ENSG00000109805_ENST00000514176|hu_mus|hu_hu_hu_mus_False|58_58 (ssRNA)
RNA: GGGAGUUCUACAGUCCGACGAUCGCUCUCUUAACUUGUAUCUUCAUUAAGGAACUCUGCAAGGUUAAGUUUACUUUUUCUAGUGCUAGCUGUUUUGGCUCGUCUGGGUAAUCUCAUCUUCAUUUCUGAUGGUGGUUCAUGAUCCAACAGAGGAUUGAGCAUCA
B11: chr9:66815617:66815618:-_ENSMUSG00000032370_ENSMUST00000034929|mus_hu|motif|central (ssRNA)
RNA: GGGAGUUCUACAGUCCGACGAUCGUCAUGGAAUAUUUUCUGCAUAUAGUCCAAAUAUUUACAUCCUGAAGCUCUCUCGGCGGUGGCUGCCAGUAGGGUAUAGCCAAAAGUUGAAUACAAAAACUGACUACCAGGUUUGAAGAACAACAGAGGAUUGAGCAUCA
B12: 108188139_108188259_805_CDS_ENSMUSG00000005698_ENSMUST00000005841|mouse|control|control (ssRNA)
RNA: GGGAGUUCUACAGUCCGACGAUCUGGCUGAUAGUCUGGGUCUUUUUGCCAGCUAGAGUCUUCCUGAGGAGGAAGCUCGCCCUGCUCUAGUGUCUCCACUUCUCCAUUGGCCCCCACUUUCACCACCUGAAAUCCUUCAGGCAACAACAGAGGAUUGAGCAUCA
B13: chr12:120936209:120936210:+_ENSG00000088986_ENST00000242577|hu_hu|FALSE|FALSE (ssRNA)
RNA: GGGAGUUCUACAGUCCGACGAUCUGAGAGAAAACAACGUGGGCAGAAGUAUGGAAUAGAAAAUAAAUACAAAUGUAGGCUAUUCUGCUAAUUGUUUUAUAACCACGACAAACUAGUACAGAGAAUGCCCUGUACAAAACACAACAACAGAGGAUUGAGCAUCA
B14: chr3:179287964:179287965:+_ENSG00000136518_ENST00000429709|hu_hu|hu_hu_hu_mus_True|48_88 (ssRNA)
RNA: GGGAGUUCUACAGUCCGACGAUCCUUGAGUGGUGAGAUGGCCUCCAUAUUCUCCCUGGGCACGCGGAGGGCAUUGGUGUCUAUGUAGUAGGUGGGACCGCCCUGCUUGCCUUUGUCACCAUCAAUCUCCAUCAUUGUACUUCCCAACAGAGGAUUGAGCAUCA
B15: chr1:163112212:163112213:-_ENSG00000143248_ENST00000313961|hu_hu|hu_hu_hu_mus_False|38_98 (ssRNA)
RNA: GGGAGUUCUACAGUCCGACGAUCUUUUAUUAUCAGUAAGCAUGAGUUACAUACUAGGCAAAGUAUUGGAUACAAUAAUCAGGAAACAAACACUAUUUUUCUUGAAUUUAAAACUUUAUGAGCGAAGUGCUGGCACAGGACUUACAACAGAGGAUUGAGCAUCA
B16: chr16:46732117:46732118:+_ENSG00000091651_ENST00000219097|hu_hu|FALSE|FALSE (ssRNA)
RNA: GGGAGUUCUACAGUCCGACGAUCCAAGGGACUGCCAUUCACUUAAAGCAAAAUGGCUCCAAUUCCGUUUAUCUAUCUAUCUAUCUAUCUAUCUAUCUAUCCAUCUAUCUAUCUAUCUAUCUAUAAGUCUCGCUCUGUCACCCACAACAGAGGAUUGAGCAUCA
B17: chr19:40827925:40827926:-_ENSG00000160392_ENST00000392035|hu_hu|FALSE|FALSE (ssRNA)
RNA: GGGAGUUCUACAGUCCGACGAUCGCUGCUCCCCCGGGGCCCCACCAGAGUCCUCUUAAUGGUGACCUUGACCUCGGCUGAGGACUUACUCUUGGUGCUGGUGACCUGGCUGUCCUGGGCCUCGGGCACAAGGGCAGCUGCGCCCAACAGAGGAUUGAGCAUCA
B18: 39180548_39183902_2538_CDS_ENSMUSG00000037475_ENSMUST00000047037|mouse|control|control (ssRNA)
RNA: GGGAGUUCUACAGUCCGACGAUCCACCAUCUCACAUGAUGUAAUGUAUUUAUGGACUUUAUGUUGCUGUUUACUUCCCUUUUCUGAUUUUUUAAGUUCAUCGUAUUUUGACGAAAUAUGGUGUGCAUACAUUGGCCUAGACAGCAACAGAGGAUUGAGCAUCA
B19: chr3:33703679:33703680:+_ENSMUSG00000027677_ENSMUST00000099153|mus_mus|FALSE|FALSE (ssRNA)
RNA: GGGAGUUCUACAGUCCGACGAUCUUCUAACUGCCCUCCCCUUUCUACAAGUGUCUGGCAGAGAUAUUUCCUUGCAUUCCUAUGAGUUGGGCAGUUUUCUAAUGCGAGCUCAAAAUCUUCUAUUGCUUUGUUUAGACUUCCUUUCAACAGAGGAUUGAGCAUCA
B20: chr2:48034816:48034817:-_ENSG00000138081_ENST00000403359|hu_hu|FALSE|FALSE (ssRNA)
RNA: GGGAGUUCUACAGUCCGACGAUCAUAUUUCUCAAUCUGAAUACAUGUUAAAAAAAAAAAAUCAAAAGGAACGCAGAAGUGCUAGCUCACAUUUUUACCAUAUUACAAAAGCAAUUGGUACCCAUGUCCAUAAAGGCAGCAACACAACAGAGGAUUGAGCAUCA
B21: chr4:140556289:140556290:+_ENSMUSG00000036622_ENSMUST00000037055|mus_hu|FALSE|FALSE (ssRNA)
RNA: GGGAGUUCUACAGUCCGACGAUCGAUGGAGCUCACCAGGCCCCCUUUUGCCGUGCAGAACCCUGUGCGGGUCACCACUGCCAGGACGUGCGGUCCCACAUAGGCCCGGGCCUGCAAGAUGAGGGUCCCGCAGAAGAGUGUGUGCAACAGAGGAUUGAGCAUCA
B22: chr15:65869917:65869918:+_ENSG00000074696_ENST00000261875|hu_hu|motif|central (ssRNA)
RNA: GGGAGUUCUACAGUCCGACGAUCGCCAUUUUUUAUGUUUGUGCACAGCCUUACAGUUUGGAGGUGUGUUUGGCCGGCUCGGAUAUUUCUAGUUUGUCAAAGGCUGUACACUGUUACUGCCAGUUUGACCUACAUACUGUGUUCCAACAGAGGAUUGAGCAUCA

Molecular target: T1, UNK ZnF1-3 (human, UniProt Q9C0B0 31-174)
T1 sequence: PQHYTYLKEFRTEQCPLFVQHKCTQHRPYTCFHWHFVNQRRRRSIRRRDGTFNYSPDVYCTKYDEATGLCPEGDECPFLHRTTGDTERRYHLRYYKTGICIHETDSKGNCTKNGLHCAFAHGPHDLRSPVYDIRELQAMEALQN
Assay: nsRBNS (natural sequence RNA bind-n-seq); RBNS binding buffer (assumed for nsRBNS): 25 mM Tris pH 7.5, 150 mM KCl, 3 mM MgCl2, 0.01% Triton X-100, 500 ug/ml BSA, 20 U/ml SUPERase-In, 4 C; UNK is unkempt and MSI1 is Musashi-1; names of the RNAs are library labels; protein concentration not given here; high values mean tight binding

Q: How did the binding signal turn out when B1 was run?
A: Its binding signal is 1.24 enrichment R.

Q: How did the binding signal turn out when B2 was run?
A: The binding signal was 1.43 enrichment R.

Q: B3 was tested. Which binding signal did it give?
A: The binding signal was 1.23 enrichment R.

Q: How did the binding signal turn out when B4 was run?
A: Its binding signal is 1.46 enrichment R.

Q: With B5 as the binder, how does the binding signal read?
A: Its binding signal is 1.31 enrichment R.

Q: B6 was tested. Which binding signal did it give?
A: Its binding signal is 1.75 enrichment R.

Q: Which binding signal does the source give for B7 here?
A: Its binding signal is 0.904 enrichment R.

Q: How did the binding signal turn out when B8 was run?
A: Its binding signal is 0.949 enrichment R.

Q: How did the binding signal turn out when B9 was run?
A: Its binding signal is 1.08 enrichment R.

Q: B10 was tested. Which binding signal did it give?
A: Its binding signal is 0.36 enrichment R.

Q: For B11, which binding signal is on record?
A: The binding signal was 1.37 enrichment R.

Q: How did the binding signal turn out when B12 was run?
A: The binding signal was 0.702 enrichment R.

Q: With B13 as the binder, how does the binding signal read?
A: The binding signal was 1.55 enrichment R.

Q: Which binding signal does the source give for B14 here?
A: Its binding signal is 0.661 enrichment R.

Q: Which binding signal does the source give for B15 here?
A: Its binding signal is 1.42 enrichment R.

Q: B16 was tested. Which binding signal did it give?
A: The binding signal was 0.983 enrichment R.

Q: B17 was tested. Which binding signal did it give?
A: Its binding signal is 0.572 enrichment R.

Q: For B18, which binding signal is on record?
A: Its binding signal is 0.595 enrichment R.

Q: B19 was tested. Which binding signal did it give?
A: The binding signal was 0.28 enrichment R.

Q: For B20, which binding signal is on record?
A: The binding signal was 1.91 enrichment R.

Q: B21 was tested. Which binding signal did it give?
A: Its binding signal is 1.24 enrichment R.

Q: For B22, which binding signal is on record?
A: Its binding signal is 0.37 enrichment R.
